45 sequences from the supplement of paper PMC11417369 can be followed below.

± gives the standard deviation of the averaged measurements. Some of the results follow.

For this experiment, the system named is PfAP2-LT AP2 domain (GST-tagged). Kind of experiment: gcPBM binding intensity (ln(normalized median fluorescence intensity)); higher = stronger DNA binding. In a few lines:
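An Agilent 4 × 180k array carrying primer-extended double-stranded 36-bp intergenic genomic probes and negative controls received GST-tagged P. falciparum DNA-binding domains expressed in E. coli, about 25 μg on average, for 1 h. The binding buffer contained 1× PBS, 1% milk, 0.2 mg/ml BSA, 0.5% salmon testes DNA and 0.03% Triton X-100. Binding intensity is the top Masliner-normalised natural-log median intensity across replicate spots of either probe orientation, read after Alexa488 anti-GST antibody staining and a 488 nm scan.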
As for “TTATATTTATTGATATGTACATATTATAATTAATTA [XGTACX_site586]”, the “gcPBM binding intensity (ln)” value was 8.52 ± 0.41.

With “TTTTAATATTTTGCCTGTACATAAAAGTGAGAAGAT [XGTACX_site2503]”, the “gcPBM binding intensity (ln)” value is 8.73 ± 0.54.

For “AAAAATGCCAGAAAACGTACTCGGATTTTCTAATAT [XGTACX_site6552]”, the “gcPBM binding intensity (ln)” value was 8.71 ± 0.49.

As for “TGATTACATATGATGTGTACCTAATTTTGTTTACAC [XGTACX_site7032]”, the “gcPBM binding intensity (ln)” value worked out at 9.14 ± 0.51.

As to “ACTATATATATAAGTGCATGTTCATTATACCTAAAG [TGCATGCA_site696]”, the “gcPBM binding intensity (ln)” value amounted to 8.83 ± 0.42.

On to “AGTAAATTATATATCTGTACATATATATATGTGTAT [XGTACX_site5519]”, for which the “gcPBM binding intensity (ln)” value came out at 9.04 ± 0.28.

Take “TTTTAAAAAAATATAATACACACCAAAAATATGCAC [CACACA_site2131]”: the “gcPBM binding intensity (ln)” value is 8.86 ± 0.35.

Take “AAAAATTCATTTTTATGTACGTACAAATTCTTCGTT [XGTACX_site2471]”: the “gcPBM binding intensity (ln)” value is 8.7 ± 0.57.

On to “CTCACAAATGAATACACACAAACATATATATTTATA [CACACA_site1620]”, for which the “gcPBM binding intensity (ln)” value came to 9.08 ± 0.38.

Take “TGGAATAATACGCGTACACACATATAAATATTAATA [CACACA_site6211]”: the “gcPBM binding intensity (ln)” value turned out to be 9.26 ± 0.44.

Take “ATATAATGGCTAAATAGTACAATATAATATTTTTTA [XGTACX_site8922]”: the “gcPBM binding intensity (ln)” value came to 8.64 ± 0.44.

Regarding “ACACATGAATATTGTAGTACGGCAATTAATATAATA [XGTACX_site4589]”, the “gcPBM binding intensity (ln)” value was found to be 9.01 ± 0.4.

As for “AGAAAGGAAAAAACCTCACACATGCTTTTAATAGTA [CACACA_site4602]”, the “gcPBM binding intensity (ln)” value came to 8.71 ± 0.43.

Consider “AAAAAAATATAAATACGTACATATATATATATATAT [XGTACX_site432]”, for which the “gcPBM binding intensity (ln)” value is 9.79 ± 0.17.

Regarding “CTATTCTATTTTTATTGTACATATATATAATTTGAA [XGTACX_site389]”, the “gcPBM binding intensity (ln)” value turned out to be 8.66 ± 0.42.

For the sequence “AATAGAAAAAAAAAATGTACAAAATGTTTATAAAAA [XGTACX_site4635]”, the “gcPBM binding intensity (ln)” value was 8.79 ± 0.52.

For the sequence “TCATTTTAAGGAAAAAGTACAAAATAATATGTTCCT [XGTACX_site1903]”, the “gcPBM binding intensity (ln)” value turned out to be 8.49 ± 0.4.

“GATGTGTAAATAAGGATATATAACAATCAACAAAAC [XGTACX_negctrl_site494]”: the “gcPBM binding intensity (ln)” value was found to be 9.18 ± 0.47.

As for “TTCTTAATACAAATATGTACATATATATATATATAT [XGTACX_site757]”, the “gcPBM binding intensity (ln)” value worked out at 9.31 ± 0.042.

Regarding “ACCTATTTCAAACACACACACACACCCACAAACATA [CACACA_site977]”, the “gcPBM binding intensity (ln)” value worked out at 10.1 ± 0.33.

On to “ACGAATATAGGATGTTTGCACTGTACCAATAAATGA [GTGCAC_site9808]”, for which the “gcPBM binding intensity (ln)” value is 8.81 ± 0.42.

Consider “AAATTACCCTTGTGTACACATATATTATCTGTATTA [CACACA_site4514]”, for which the “gcPBM binding intensity (ln)” value was 9.16 ± 0.4.

For “AAATGAATATAAAATATACACACTTATATATTGAAT [CACACA_site202]”, the “gcPBM binding intensity (ln)” value amounted to 8.9 ± 0.42.

Consider “AAAAAATTTTAATATGCATGTAATTTTGCTTTTTCA [TGCATGCA_site1044]”, for which the “gcPBM binding intensity (ln)” value amounted to 8.56 ± 0.39.

For the sequence “AGCACGCACAGACACACACACATATTTATATTTATA [CACACA_site6291]”, the “gcPBM binding intensity (ln)” value came to 9.72 ± 0.39.

On to “TAATATAGGGGTGTTCAAATAAATTTTGTTATTTTT [CACACA_negctrl_site1203]”, for which the “gcPBM binding intensity (ln)” value is 8.9 ± 0.25.

Turning to “GAAGGAAATAAATCAACACACATATATTATAGATAT [CACACA_site7095]”, the “gcPBM binding intensity (ln)” value was found to be 9.18 ± 0.46.

Consider “ATAATGTAAAATAAATGTACGCAATATATAAAAAAT [XGTACX_site5747]”, for which the “gcPBM binding intensity (ln)” value was found to be 9.17 ± 0.41.

Turning to “TATTGAAAGTGAATTATAACATTAAAAATATATATA [TGCATGCA_negctrl_site566]”, the “gcPBM binding intensity (ln)” value was found to be 8.51 ± 0.49.

As to “TGAATATGTAAATGCACACCAAAAAAAAAAAAAAAA [CACACA_site3566]”, the “gcPBM binding intensity (ln)” value came to 8.87 ± 0.42.

On to “CAATATAAAAGACACACACACAAACATATATTTATA [CACACA_site7697]”, for which the “gcPBM binding intensity (ln)” value turned out to be 10 ± 0.37.

Consider “AAAATAAAAAAAATGAATTAGTTAAATGAAAAATAA [CACACA_negctrl_site1294]”, for which the “gcPBM binding intensity (ln)” value amounted to 8.48 ± 0.48.

With “ATTATATAATAATGCATGCACCTTATTTTCATTTCA [GTGCAC_site9922]”, the “gcPBM binding intensity (ln)” value was found to be 9.14 ± 0.36.

As for “TTTCTTTTTTTGGGCACACAAAATTTTCTCATTTTA [CACACA_site68]”, the “gcPBM binding intensity (ln)” value is 8.8 ± 0.4.

For “TGAATAAATAAACACACACACATATATATATCTGTA [CACACA_site4184]”, the “gcPBM binding intensity (ln)” value amounted to 9.89 ± 0.23.

As to “TATCTTCATATATGGTGTACAGATTTTTTTTTTTTT [XGTACX_site5545]”, the “gcPBM binding intensity (ln)” value amounted to 8.69 ± 0.49.

On to “ATAAAATTATTATATACATGCAAAATTAATATATTG [TGCATGCA_site507]”, for which the “gcPBM binding intensity (ln)” value was 8.47 ± 0.36.

For the sequence “AAATAATAAAGTATAACACACATATTTATTTATATA [CACACA_site7822]”, the “gcPBM binding intensity (ln)” value is 8.79 ± 0.43.

As to “AAATAGAAAAAATATACACACACTTATTAAATAAAA [CACACA_site3313]”, the “gcPBM binding intensity (ln)” value is 9.16 ± 0.35.

Take “CTGATATATTATTTATCTGAATATATTAATATGTAT [GTGCAC_negctrl_site82]”: the “gcPBM binding intensity (ln)” value is 8.54 ± 0.45.

As for “AAAATTAAAAAAATATGTACTTATGGGTAACATCAT [XGTACX_site5548]”, the “gcPBM binding intensity (ln)” value worked out at 8.57 ± 0.38.

Regarding “GTTATACATTTGAAAAGTACTCATGATTTTTTTTTT [XGTACX_site8177]”, the “gcPBM binding intensity (ln)” value is 8.65 ± 0.42.

On to AATATTCAATATAAAGTGCATTATTGTGCCCCTAAT, for which the “gcPBM binding intensity (ln)” value stood at 8.69 ± 0.42.

On to “TTTTTATTGTTATACTTATATTATTTTATGATTAAA [XGTACX_negctrl_site262]”, for which the “gcPBM binding intensity (ln)” value was determined as 8.49 ± 0.54.

As for “ATAAAAATCAAAAAAAATACATAATAGTAATAATAA [GTGCAC_negctrl_site481]”, the “gcPBM binding intensity (ln)” value stood at 8.73 ± 0.54.
